Measured values published in the supplement of paper PMC11876631.
Where a chain is given by its changes, count along the chain named. Names and notes keep the numbering of the source. ± gives the standard deviation of the averaged measurements. Laboratory Escherichia coli strains with one amino-acid change in an essential protein, pooled on minimal glucose agar with carbenicillin or gentamicin at twice the control MIC (plus kanamycin and chloramphenicol for the plasmids), 48 h. Fold change of barcode share against drug-free plates; higher = less susceptible. Active = above 20 in both replicates (the paper's putatively resistant). '<' = one read or none on drug, '>' = one read or none on a drug-free plate. Shares are relative, so most strains fall below 1 when a few take over. Listed are strains with at least 15 reads on both drug-free plates, and hits; most hits rest on fewer reference reads. Replicate rank correlation about 0.5. Edits are read from barcodes.

B1: pyrH L82A (protein)
chain: MATNAKPVYKRILLKLSGEALQGTEGFGIDASILDRMAQEIKELVELGIQVGVVIGGGNLFRGAGLAKAGMNRVVGDHMGMAATVMNGLAMRDALHRAYVNARLMSAIPLNGVCDSYSWAEAISLLRNNRVVILSAGTGNPFFTTDSAACLRGIEIEADVVLKATKVDGVFTADPAKDPTATMYEQLTYSEVLEKELKVMDLAAFTLARDHKLPIRVFNMNKPGALRRVVMGEKEGTLITE
B2: pyrG V295A (protein)
chain: MTTNYIFVTGGVVSSLGKGIAAASLAAILEARGLNVTIMKLDPYINVDPGTMSPIQHGEVFVTEDGAETDLDLGHYERFIRTKMSRRNNFTTGRIYSDVLRKERRGDYLGATVQVIPHITNAIKERVLEGGEGHDVVLVEIGGTVGDIESLPFLEAIRQMAVEIGREHTLFMHLTLVPYMAASGEVKTKPTQHSVKELLSIGIQPDILICRSDRAVPANERAKIALFCNVPEKAVISLKDVDSIYKIPGLLKSQGLDDYICKRFSLNCPEANLSEWEQVIFEEANPVSEVTIGMAGKYIELPDAYKSVIEALKHGGLKNRVSVNIKLIDSQDVETRGVEILKGLDAILVPGGFGYRGVEGMITTARFARENNIPYLGICLGMQVALIDYARHVANMENANSTEFVPDCKYPVVALITEWRDENGNVEVRSEKSDLGGTMRLGAQQCQLVDDSLVRQLYNAPTIVERHRHRYEVNNMLLKQIEDAGLRVAGRSGDDQLVEIIEVPNHPWFVACQFHPEFTSTPRDGHPLFAGFVKAASEFQKRQAK
B3: pyrG V295P (protein)
chain: B2 chain with A295P
B4: pyrG M39A (protein)
chain: B2 chain with M39A, A295V
B5: pyrG L208Q (protein)
chain: B2 chain with L208Q, A295V
B6: pyrG M39W (protein)
chain: B2 chain with M39W, A295V
B7: pyrG M39D (protein)
chain: B2 chain with M39D, A295V
B8: pyrG L208A (protein)
chain: B2 chain with L208A, A295V
B9: pyrG V295Q (protein)
chain: B2 chain with A295Q
B10: pyrG M39Q (protein)
chain: B2 chain with M39Q, A295V

Molecular target: Escherichia coli (laboratory strain)
Experiment: barcode share on antibiotic plates over drug-free plates; higher = less susceptible
Protocol: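 A pool of E. coli strains, each edited to carry one amino-acid change in an essential protein, was grown for 48 h on minimal glucose agar with or without antibiotic; strain barcodes were sequenced; mean of two replicates.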

[1] = antibiotic: carbenicillin, 2× MIC (3.1 µg/mL)
[2] = antibiotic: gentamicin, 2× MIC (MIC 0.45 µg/mL)

| Protein | fold change of barcode share [1] | fold change of barcode share [2] |
| --- | --- | --- |
| B1 | 0.518 ± 0.14 | 0.0968 ± 0.14 |
| B2 | 0.304 ± 0.18 | 0.00462 ± 0.0037 |
| B3 | 0.251 ± 0.1 | < 0.00283 |
| B4 | 0.188 ± 0.0099 | 0.0149 ± 0.014 |
| B5 | 0.323 ± 0.13 | < 0.0165 |
| B6 | 0.557 ± 0.027 | < 0.0119 |
| B7 | 0.277 ± 0.084 | < 0.00373 |
| B8 | 0.494 ± 0.26 | < 0.0102 |
| B9 | 0.188 ± 0.0032 | 0.00914 ± 0.0076 |
| B10 | 0.313 ± 0.0058 | < 0.00444 |
